Measured values published in article PMC10336126.
These are yes or no findings as the source states them, for the method shown. For part of these data: Binding seen in cells or lysates may run through a third protein. Some binding calls cover weakened binding; strength is not graded here.

By UniProt entry, the sequences of proteins in these tests, tags left out.
UniProt Q00416: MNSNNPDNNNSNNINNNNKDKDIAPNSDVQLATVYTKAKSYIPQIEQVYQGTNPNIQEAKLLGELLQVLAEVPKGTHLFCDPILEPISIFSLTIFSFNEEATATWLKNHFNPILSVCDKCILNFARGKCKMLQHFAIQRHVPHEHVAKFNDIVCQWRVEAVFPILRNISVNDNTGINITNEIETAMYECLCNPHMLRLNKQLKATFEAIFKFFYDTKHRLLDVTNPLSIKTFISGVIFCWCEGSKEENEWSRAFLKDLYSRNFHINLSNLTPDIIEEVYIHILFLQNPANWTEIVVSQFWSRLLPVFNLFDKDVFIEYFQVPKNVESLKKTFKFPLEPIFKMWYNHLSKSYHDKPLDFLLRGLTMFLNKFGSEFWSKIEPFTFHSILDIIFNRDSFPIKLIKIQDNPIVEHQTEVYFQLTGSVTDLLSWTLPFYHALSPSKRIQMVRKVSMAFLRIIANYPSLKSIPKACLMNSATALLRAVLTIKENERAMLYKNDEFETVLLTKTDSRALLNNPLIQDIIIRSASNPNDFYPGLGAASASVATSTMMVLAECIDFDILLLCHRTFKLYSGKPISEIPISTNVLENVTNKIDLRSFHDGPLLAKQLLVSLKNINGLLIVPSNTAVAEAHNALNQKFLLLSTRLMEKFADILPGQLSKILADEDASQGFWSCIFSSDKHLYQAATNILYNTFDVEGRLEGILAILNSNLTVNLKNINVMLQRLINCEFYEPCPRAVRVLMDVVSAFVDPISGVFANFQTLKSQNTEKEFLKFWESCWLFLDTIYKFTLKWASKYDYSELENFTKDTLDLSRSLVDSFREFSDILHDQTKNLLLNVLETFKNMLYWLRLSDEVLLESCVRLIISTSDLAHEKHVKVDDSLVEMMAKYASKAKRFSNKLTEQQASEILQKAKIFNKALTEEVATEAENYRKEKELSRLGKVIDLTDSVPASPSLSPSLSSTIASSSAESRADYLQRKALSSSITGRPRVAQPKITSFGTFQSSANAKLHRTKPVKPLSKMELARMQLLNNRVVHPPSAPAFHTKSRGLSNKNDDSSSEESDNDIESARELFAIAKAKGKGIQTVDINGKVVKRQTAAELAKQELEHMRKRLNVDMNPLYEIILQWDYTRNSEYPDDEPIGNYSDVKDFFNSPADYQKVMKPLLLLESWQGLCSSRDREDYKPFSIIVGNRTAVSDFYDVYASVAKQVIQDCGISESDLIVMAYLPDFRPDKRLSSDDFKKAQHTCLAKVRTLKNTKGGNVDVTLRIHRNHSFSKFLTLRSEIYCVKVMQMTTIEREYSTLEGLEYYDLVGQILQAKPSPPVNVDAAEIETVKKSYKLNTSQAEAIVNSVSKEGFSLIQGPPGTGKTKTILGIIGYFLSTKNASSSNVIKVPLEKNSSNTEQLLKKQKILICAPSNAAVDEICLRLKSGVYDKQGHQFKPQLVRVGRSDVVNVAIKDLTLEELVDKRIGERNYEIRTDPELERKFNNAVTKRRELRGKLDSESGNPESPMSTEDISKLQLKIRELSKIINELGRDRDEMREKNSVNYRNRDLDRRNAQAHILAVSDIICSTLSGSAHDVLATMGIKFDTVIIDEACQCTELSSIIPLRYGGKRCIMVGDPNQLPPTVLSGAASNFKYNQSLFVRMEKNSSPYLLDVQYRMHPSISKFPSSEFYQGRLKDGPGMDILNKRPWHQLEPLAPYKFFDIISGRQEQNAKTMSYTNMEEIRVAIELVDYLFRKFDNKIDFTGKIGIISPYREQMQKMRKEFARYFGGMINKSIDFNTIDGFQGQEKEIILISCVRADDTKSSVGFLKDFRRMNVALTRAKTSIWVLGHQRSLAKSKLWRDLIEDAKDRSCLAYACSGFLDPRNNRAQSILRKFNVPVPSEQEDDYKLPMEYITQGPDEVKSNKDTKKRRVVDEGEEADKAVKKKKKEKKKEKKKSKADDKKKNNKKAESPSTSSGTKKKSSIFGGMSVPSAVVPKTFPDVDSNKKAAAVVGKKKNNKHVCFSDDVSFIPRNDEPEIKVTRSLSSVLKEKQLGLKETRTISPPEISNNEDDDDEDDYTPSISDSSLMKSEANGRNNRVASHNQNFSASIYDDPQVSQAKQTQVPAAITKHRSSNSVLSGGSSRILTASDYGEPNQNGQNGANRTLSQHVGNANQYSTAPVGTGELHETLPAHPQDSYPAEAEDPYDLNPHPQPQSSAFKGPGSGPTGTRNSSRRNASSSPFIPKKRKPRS
UniProt P29539: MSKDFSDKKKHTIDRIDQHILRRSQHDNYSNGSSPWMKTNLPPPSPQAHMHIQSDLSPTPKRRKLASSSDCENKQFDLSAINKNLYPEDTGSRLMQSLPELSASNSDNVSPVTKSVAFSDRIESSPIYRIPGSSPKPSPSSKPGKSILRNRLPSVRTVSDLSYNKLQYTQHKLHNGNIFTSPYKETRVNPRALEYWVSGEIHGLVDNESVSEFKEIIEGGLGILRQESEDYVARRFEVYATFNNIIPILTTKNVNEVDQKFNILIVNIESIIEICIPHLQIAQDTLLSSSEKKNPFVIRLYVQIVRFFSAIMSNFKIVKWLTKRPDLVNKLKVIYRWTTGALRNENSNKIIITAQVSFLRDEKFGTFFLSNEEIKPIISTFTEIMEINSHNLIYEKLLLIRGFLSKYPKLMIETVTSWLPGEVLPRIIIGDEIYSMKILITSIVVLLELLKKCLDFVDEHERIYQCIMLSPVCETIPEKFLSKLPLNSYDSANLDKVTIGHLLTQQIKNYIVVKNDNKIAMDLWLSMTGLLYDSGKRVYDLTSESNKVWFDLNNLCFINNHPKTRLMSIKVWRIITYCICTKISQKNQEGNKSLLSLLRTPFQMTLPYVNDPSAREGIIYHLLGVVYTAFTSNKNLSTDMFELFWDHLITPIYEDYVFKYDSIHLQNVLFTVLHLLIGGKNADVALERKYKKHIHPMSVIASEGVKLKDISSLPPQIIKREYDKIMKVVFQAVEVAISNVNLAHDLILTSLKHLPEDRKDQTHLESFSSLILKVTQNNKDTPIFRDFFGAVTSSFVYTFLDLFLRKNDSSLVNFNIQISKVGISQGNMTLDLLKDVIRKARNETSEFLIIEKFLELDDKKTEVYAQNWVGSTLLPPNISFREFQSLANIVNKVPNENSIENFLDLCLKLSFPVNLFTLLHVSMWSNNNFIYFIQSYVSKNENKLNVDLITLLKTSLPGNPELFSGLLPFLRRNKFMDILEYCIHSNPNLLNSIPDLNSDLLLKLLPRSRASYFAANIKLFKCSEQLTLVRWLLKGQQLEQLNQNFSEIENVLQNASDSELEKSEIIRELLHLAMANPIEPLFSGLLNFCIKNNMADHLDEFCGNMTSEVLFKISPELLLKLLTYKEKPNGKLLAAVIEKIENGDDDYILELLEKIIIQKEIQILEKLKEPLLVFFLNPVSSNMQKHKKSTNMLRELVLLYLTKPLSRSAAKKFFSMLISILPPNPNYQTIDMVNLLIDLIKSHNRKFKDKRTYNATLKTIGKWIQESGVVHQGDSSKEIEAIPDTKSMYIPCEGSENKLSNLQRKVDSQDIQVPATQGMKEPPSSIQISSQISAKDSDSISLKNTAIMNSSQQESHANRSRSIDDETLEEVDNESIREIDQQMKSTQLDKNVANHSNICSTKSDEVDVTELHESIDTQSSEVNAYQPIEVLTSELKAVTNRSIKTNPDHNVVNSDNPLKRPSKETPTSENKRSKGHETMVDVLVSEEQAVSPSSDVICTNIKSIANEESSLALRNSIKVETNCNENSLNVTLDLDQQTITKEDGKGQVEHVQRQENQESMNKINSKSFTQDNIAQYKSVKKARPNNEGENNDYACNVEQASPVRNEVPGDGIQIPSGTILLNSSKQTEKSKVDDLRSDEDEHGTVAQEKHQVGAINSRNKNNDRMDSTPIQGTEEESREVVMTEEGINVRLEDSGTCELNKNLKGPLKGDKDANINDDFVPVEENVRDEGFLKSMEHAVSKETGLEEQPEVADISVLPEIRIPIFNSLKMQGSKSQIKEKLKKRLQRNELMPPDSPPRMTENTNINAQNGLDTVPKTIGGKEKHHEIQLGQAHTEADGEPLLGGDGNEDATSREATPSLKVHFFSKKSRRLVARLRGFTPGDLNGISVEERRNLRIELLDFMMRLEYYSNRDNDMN
UniProt P32598: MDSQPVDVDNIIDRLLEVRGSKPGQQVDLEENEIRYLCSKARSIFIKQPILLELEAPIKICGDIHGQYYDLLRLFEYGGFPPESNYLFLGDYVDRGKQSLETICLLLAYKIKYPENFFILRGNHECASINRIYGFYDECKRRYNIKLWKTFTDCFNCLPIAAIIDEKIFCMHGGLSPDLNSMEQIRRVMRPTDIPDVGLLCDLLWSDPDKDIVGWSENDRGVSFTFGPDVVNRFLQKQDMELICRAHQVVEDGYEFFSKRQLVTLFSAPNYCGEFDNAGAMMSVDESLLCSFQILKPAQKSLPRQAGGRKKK

Experiments:
[1] = molecular target: Sen1-TAP, endogenously expressed (budding yeast (endogenous in yeast cells)) (UniProt Q00416); test: co-IP; yeast whole cell extract; anti-FLAG M2 agarose, calmodulin Sepharose beads or antibody on Protein A/G Sepharose, 4 °C; washes with 350 mM NaCl, 0.1% NP-40; immunoblot; also cells in SD (+Glu) or SD-C (-Glu) medium for 2 h (Sen1-Glc7 increased, Rif1-Glc7 unaffected without glucose)
[2] = molecular target: Rif1-CBP, purified by tandem affinity purification (budding yeast (endogenous in yeast cells)) (UniProt P29539); test: tandem affinity purification from yeast cells, partner found in the purified complex; Sen1-CBP or Rif1-CBP purified by tandem affinity purification from yeast cells; Glc7 co-purified
[3] = molecular target: Sen1-TAP, endogenously expressed (budding yeast (endogenous in yeast cells)) (UniProt Q00416); test: as above

Measured: binding

Glc7 (protein phosphatase 1 catalytic subunit), endogenously expressed (from UniProt P32598 1-312) (enzyme)
binds: all assays above
